Article PMC12040169 (PLOS Biology, 2025)
The other results are listed elsewhere or left out.

What follows are compounds tested on T1, C. trachomatis L2/434/Bu expressing GFP (CTL2-GFP). Conditions: total inclusion area; 28.5 h, 10 µM; inhibitor.
T1 construct: L2/434/Bu GFP intracellular growth in HeLa cells
Set-up: species or system HeLa; C. trachomatis total inclusion area by high-content imaging, normalised to DMSO
Outline: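 Bulk GFP and resorufin signals were read first. Wells were then fixed, stained with Hoechst and imaged to detect GFP inclusions and host nuclei. MICs followed the previously described calculation.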

Structure (SMILES)	% of control remaining
CC(C)Cn1cncc1CNC(=O)Nc1ccc2c(cnn2C)c1 [CBK307405]	94.9533
NC1CCC(Nc2cncc(-c3ccc(F)c(Cl)c3)n2)CC1 (stereo not shown) [CBK037893]	60.5491
O=C(Cc1ccsc1)N1C[C@@H]2CCCCN(CC3CC3)[C@@H]2C1 [CBK285507]	86.0386
COc1cc(CN2CCCCC2CO)c([N+](=O)[O-])cc1OC (stereo not shown) [CBK261730]	101.594
COc1ccc(CCN(CCc2ccccc2)CC(O)COc2cccc3c2CCCC3)cc1 (stereo not shown) [CBK024506T]	38.9567
Cc1ccn2c(NS(=O)(=O)c3ccc(CCC(=O)O)cc3)c(-c3cccs3)nc2c1 [CBK297480]	68.9047
O=[N+]([O-])c1ccc(CN2C[C@H](O)C[C@H]2c2nc(-c3ccccc3)no2)cc1 [CBK288833]	96.8096
Cc1cc(C)nc(NC2=NC(=O)CC(C(=O)O)N2c2ccc(Cl)cc2Cl)n1 (stereo not shown) [CBK286968]	124.022
COc1ccc(-c2cc(Nc3ccc(N(C)C)cc3)ncn2)cc1OC [CBK036969]	73.4708
CC(Oc1ccc(F)cc1)C(=O)Nc1ccc(S(N)(=O)=O)cc1 (stereo not shown) [CBK265506]	84.7543
COCC(=O)N1CCc2sccc2C1c1ccc(NCc2cccc(OC)c2)cc1 (stereo not shown) [CBK286454]	106.896
O=C(CN1C(=O)c2ccc([N+](=O)[O-])cc2C1=O)Nc1cc(Cl)ccc1C(=O)O [CBK263472]	38.5855
COCCNS(=O)(=O)c1cccc2c1CN(C(=O)CC1CCCC1)CC2 [CBK306982]	86.1339
COc1ccc(S(=O)(=O)N2CCN(C(=O)c3cc(-c4ccncc4)nc4c(C)c(Cl)ccc34)CC2)cc1 [CBK267739]	113.408
CNC(=O)c1ccc(-c2cc(OC)c(OC)c(OC)c2)nc1NCCOC [CBK105997]	114.85
COc1ccc(OC)c(CN2CCN(CCCc3ccccc3)CC2)c1 [CBK264304]	86.5566
CC(C)C[C@@H]1N[C@H](C(=O)NCc2cccnc2)Cc2c[nH]c3cccc1c23 [CBK289418]	103.781
COc1cccc(NC(=O)c2cnc(-c3ccc(Cl)cc3)c(-c3ccco3)c2)c1OC [CBK037428]	115.897
Cc1nn(Cc2cccc(C(=O)Nc3ccc(S(=O)(=O)N4CCCCC4)cc3)c2)c(C)c1Cl [CBK265815]	94.5246
CC(=O)Nc1ccc(CNC(=O)CN(C)Cc2cc(C)on2)cc1 [CBK307042]	65.0513
Cc1[nH]c2ccccc2c1C(c1ccccc1OCC(=O)O)c1c(C)[nH]c2ccccc12 [CBK266038]	106.53
CN(C)c1ccc(-c2nccnc2NCc2ccc(S(C)(=O)=O)cc2)cc1 [CBK036902]	85.3317
COc1ccccc1CN(C)C(=O)Nc1ccc(S(N)(=O)=O)cc1 [CBK306026]	33.1444
Nc1ncc(-c2ccc(C(=O)N3CCOCC3)cc2)nc1C(=O)NC1CCCCC1 [CBK149160]	100.76
O=C(NCc1cccc2ccccc12)N1CCCC(CO)C1 (stereo not shown) [CBK156035]	99.0247
COCCN(CC1CC1)C(=O)NCc1cccc(Cl)c1 [CBK304368]	14.8903
CCOC(=O)C1=CC2C(=NC3=C2CCCC3)C=C1 (stereo not shown) [CBK009652]	67.5427

Structure (SMILES)	% of control remaining
COc1cc(C)nc(NN)n1 [CBK262078]	89.1364
COc1ccccc1C1(NC(=O)c2c(C)noc2C)CCCC1 [CBK283644]	112.511
COc1ccc(-c2cc(Nc3ccc(OC)cc3OC)ncn2)cc1 [CBK090763]	12.8392
NC(=O)COc1ccc(/C=C/c2cc(C(F)(F)F)[nH]c(=O)n2)cc1 [CBK269475]	111.066
O=C(NCCc1c[nH]cn1)N1CCN(c2ccc(F)cc2)CC1 [CBK156394]	99.5285
NS(=O)(=O)c1ccc(NC(=S)NNS(=O)(=O)c2ccc(Br)cc2)cc1 [CBK266928]	97.1076
CCCNC(=O)Cn1cnc2sc(C(=O)Nc3ccc(OCC)cc3)c(C)c2c1=O [CBK071920]	97.9372
CC(C)(C)c1cc(-c2nc3ccccc3[nH]2)c(O)c(-c2nc3ccccc3[nH]2)c1 [CBK266084]	40.9836
Cc1ccc(Cl)cc1N1CCN(S(=O)(=O)N(C)C)CC1 [CBK270284]	109.671
O=S(=O)(Nc1nccs1)c1ccc(Nc2ncnc3ccccc23)cc1 [CBK269487C]	11.1795
O=C(Cn1c2ccccc2c2ccccc21)Sc1nc2ccccc2[nH]1 [CBK263788]	114.466
Cc1ccc(S(=O)(=O)NCCC(=O)NO)cc1 [CBK023472]	71.5054
COc1ccc(C(C)NC(=O)CCn2ccc3ccncc32)cc1 (stereo not shown) [CBK284798]	87.0096
CN1CCN(c2nccnc2-c2ccco2)CC1 [CBK038050]	115.582
Cc1ccc(OCC(=O)Nc2cccnc2)c(-n2nc3ccccc3n2)c1 [CBK270281]	108.846
COc1cc(/C=C2/NC(=O)N(c3ccccc3)C2=O)ccc1OCc1ccc(C(=O)O)cc1 [CBK265139]	87.1087
COc1ccc(C(NC(=O)C2CCN(C(=O)Oc3ccccc3)CC2)c2ccccc2C)cn1 (stereo not shown) [CBK059715]	96.3468
COc1ccc(CC(=O)N2CCCC(c3cccc(Cc4cccc(C)c4)n3)C2)cc1 (stereo not shown) [CBK286498]	69.6811
O=C(CN1CCCCC1)NCCNc1ccc([N+](=O)[O-])cc1Cl [CBK264922]	103.599
Cc1nc2c(c(=O)[nH]1)CCN(Cc1cc(C)n(C3CC3)c1C)C2 [CBK282338]	86.4958
Cn1ncc2c1CCCN(C(=O)c1ccccc1C(F)(F)F)C2 [CBK282251]	110.395
Nc1nc2n(c1C(=O)c1ccc(Cl)cc1)CCC2 [CBK288194]	87.6334
FC(F)(F)c1ccc(Oc2ccc(-c3noc(-c4cccnc4)n3)cc2)nc1 [CBK270166]	102.526
O=C(Nc1ccc(OC(F)F)cc1)Nc1c(Br)cnc2cccnc12 [CBK107632]	92.391
O=C(c1ccc2[nH]ccc2c1)N1CCN(c2ncccn2)CC1 [CBK144500]	83.0344
O=C(Cc1ccc(NS(=O)(=O)c2cc(Cl)c(Cl)s2)nc1)N1CCOCC1 [CBK003790]	100.367
CS(=O)(=O)N1CC2(CCN(C(=O)N(CCN)CCc3ccc(Cl)cc3)CC2)c2ccccc21 [CBK001687C]	58.4489

Structure (SMILES)	% of control remaining
Cn1cc(Nc2nc(-c3ccc4c(c3)CCCN4S(C)(=O)=O)cs2)cn1 [CBK306236]	62.9389
O=C(NCCc1c[nH]c2ccccc12)c1cc2c(ccc3ccccc32)oc1=O [CBK264550]	103.352
Cc1cc(NS(=O)(=O)c2cccc3nsnc23)n(C)n1 [CBK067246]	102.661
O=C(c1ccc2occc2c1)N1CCCC2(CCN(Cc3ccccc3)C2)C1 (stereo not shown) [CBK136882]	97.332
CCNC(=S)NNC(=O)CCn1c2ccccc2c2ccccc21 [CBK262564]	92.5484
COc1ccc(Cl)cc1N1CCN(CCCCC2NC(=O)NC2=O)CC1 (stereo not shown) [CBK126448]	106.332
Cc1n[nH]cc1CN(CCCn1ccnc1)Cc1cccc(F)c1 [CBK282650]	108.164
CC(C)Cc1cc(CNC(=O)Nc2cc(-c3cccnc3)nn2C)no1 [CBK307048]	66.7725
OCCN1CCN(Cc2nc(O)c3ccccc3n2)CC1 [CBK266089]	131.275
CC(=O)Nc1sc(/C(C#N)=C/c2cccc(Oc3ccccc3)c2)nc1-c1ccc(C)cc1 [CBK264895]	90.3379
Cc1cc(C(=O)N2CCC3(C/C=C/CCOc4ccccc4C(=O)NCCCNC3=O)CC2)no1 [CBK292155]	99.0811
COCC(=O)N1CCCC(c2nc(C)n3c(C)csc23)C1 (stereo not shown) [CBK285214]	94.7041
CCn1cc(NC(=O)CCn2c(C(F)F)cc3cccnc32)cn1 [CBK282769]	97.9585
CCN(CC)CC/N=C1/CCCc2ccccc2N1 [CBK263520]	86.9674
O=C(Nc1ccc2c(c1)CS(=O)(=O)C2)c1cccs1 [CBK057563]	99.6411
COc1ccc(CCNC(=O)C2CCCN(S(=O)(=O)c3ccc4ccccc4c3)C2)cc1 (stereo not shown) [CBK269601]	90.3006
CCC(CO)Nc1cncc(-c2ccccc2CO)n1 (stereo not shown) [CBK065775]	101.457
CCOc1ccc(NCc2ccccc2NS(=O)(=O)c2ccc(C)cc2)cc1 [CBK056876]	81.0288
COc1ccccc1CNc1ccc(S(N)(=O)=O)cc1 [CBK288476]	53.4609
Cc1ccnc(NCC2CCN(CC(=O)Nc3cc(C)no3)C2)c1 (stereo not shown) [CBK306121]	104.333
CCC1CCCCN1C(=O)c1ccc(C)c(OC)c1 (stereo not shown) [CBK081557]	93.5586
O=C(C1CCCC1)N1C[C@@H]2CCCCN(Cc3cccnc3)[C@@H]2C1 [CBK285492]	106.607
CC(=O)N[C@H](Cc1c[nH]c2ccccc12)C(=O)N1CCN(c2ccc(C(F)(F)F)cc2)CC1 [CBK091314]	91.3719
CC(C)Nc1cc(SCc2ccc(F)cc2)ncn1 [CBK107158]	93.5747
O=C(COc1ccc(S(=O)(=O)N2CCc3ccccc32)cc1Cl)NCc1ccco1 [CBK268293]	101.167
